± gives the standard deviation of the averaged measurements. This is one part of the list.
system: PfAP2-I AP2 domain 3 (GST-tagged); experiment: gcPBM binding intensity (ln(normalized median fluorescence intensity)); higher = stronger DNA binding
Summary of the method: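 Probes on an Agilent 4 × 180k array were primer-extended, double-stranded and 36 bp long, taken from intergenic genomic regions, with negative controls added. GST-tagged P. falciparum DNA-binding domains from E. coli, about 25 μg on average, were applied to the array for 1 h in 1× PBS containing 1% milk, 0.2 mg/ml BSA, 0.5% salmon testes DNA and 0.03% Triton X-100. Binding intensity, obtained after Alexa488 anti-GST antibody detection and a 488 nm scan, is the highest Masliner-normalised natural-log median intensity across replicate spots of either probe orientation.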

Sequence | gcPBM binding intensity (ln)
AAAAATAAAATATATACATGCATATACATATTATAT [TGCATGCA_site668] | 7.87 ± 0.45
TGTTATATTTAATATAGTACATATTATTTTATATAT [XGTACX_site70] | 7.58 ± 0.29
TATTCTATATTTCTATTTAGAAAACATCCCAGTGTG [GTGCAC_negctrl_site184] | 7.54 ± 0.49
ATGTATATAATAAGAACACACATATATTTAATTTAA [CACACA_site2941] | 7.42 ± 0.48
ATACATATATACATACGTACTTATATACATATGTGC [XGTACX_site5268] | 7.82 ± 0.52
AGAAAATTAAAAAGAACACACAAATATATATAGAAT [CACACA_site3592] | 7.85 ± 0.79
ATTTATATGCACCATTGTACGTTTTATAAAGTTTGG [XGTACX_site3755] | 11.6 ± 0.83
TTATTATGCTGAGTACGTACTTATATAAGAATAGCA [XGTACX_site2955] | 8.09 ± 0.48
TAAGTTCACAAAAAAAAAAAAAAATAAAGAAATAAA [CACACA_negctrl_site825] | 7.37 ± 0.49
AAATTATTTCCGTGTACACATAAATATATATTTTAT [CACACA_site5121] | 8.91 ± 0.35
TAAAATATTACGTGTACACATAAATAAAAATAAAAA [CACACA_site5066] | 8.4 ± 0.2
TTTTATATTCCACAAAAAATTATATAATAATAGAAC [CACACA_negctrl_site1741] | 8.31 ± 0.3
GTAATATATACAAAATGTACAAAACAATAACATGAT [XGTACX_site8575] | 7.96 ± 0.75
ATCCAAACAAATAAAACATGCATAATATATATATAT [TGCATGCA_site766] | 9.19 ± 0.099
CTCAAATAATTTTTTACACACATTATTTGAAATAAG [CACACA_site1290] | 7.76 ± 0.47
ATGCTTTTATAAATAATTAAAAAAAAAAAAAAAAAA [TGCATGCA_negctrl_site533] | 7.79 ± 0.51
TTTTTTTTTAATATTTGTACACAACATGAAACATTT [XGTACX_site473] | 8.16 ± 0.53
AATAGAAAAAAATAAGTGCATTTTGGTATTCATCAT [GTGCAC_site9614] | 9.26 ± 0.23
GATATTGAGAAAGGGTGTACAAGATATTATACTATA [XGTACX_site3598] | 7.92 ± 0.4

Sequence | gcPBM binding intensity (ln)
TTTTATGTAATTATTTGTACATATGCCTCTTAAACT [XGTACX_site748] | 7.68 ± 0.83
ACATAAATAATAAAAACACACATATGTACATATATA [CACACA_site1913] | 7.84 ± 0.23
AAATTTATATTCATTTGTACGTAATTTAAATTATAC [XGTACX_site5870] | 7.9 ± 0.3
ACAAAATATACAAAATGTACAAAATTTACAAAATGT [XGTACX_site3544] | 7.59 ± 0.64
AAAAAAAAAAAGCACACACACATATGTGTATTTATA [CACACA_site6578] | 8.04 ± 0.22
TACTAGCAAATACATACACACACACCCATATACATA [CACACA_site9163] | 7.99 ± 0.32
AAAAAAAAAAAAAACACACACACACCCATACAAAAT [CACACA_site1446] | 8.53 ± 0.5
ATGCACTCATTGTGCACACGCATATTACGAAAAGAA [CACACA_site2638] | 10.6 ± 0.18
AAGATTTGAAAAAATACACACAATAAAAAAATAAAA [CACACA_site3281] | 7.64 ± 0.57
TATATATATATGTGTATACACACCTGATAAAGGTAT [CACACA_site2653] | 9.34 ± 0.13
AATAAATAAAAAACATGTACAAATATAATATAGCAT [XGTACX_site6429] | 8.12 ± 0.94
TATTTAACACCTTATACACACTTTCTTCCTTTTTTA [CACACA_site4590] | 8.19 ± 0.57
TATACATATGAAAATACACACATACATACCTATATA [CACACA_site6888] | 7.73 ± 0.33
TAATTGTACGCCAATACACACAGAATTATAATGTAG [CACACA_site6201] | 8.14 ± 0.57
TATAATATAATTAAAAGTACTTAAAAAAGAATGAAA [XGTACX_site1157] | 8.09 ± 0.46
TGTTTATATAATATTCTACACACCAACAACAAACAT [CACACA_site8087] | 8.465 ± 0.078
TATTTTTATAAAAATCGTACAAGTGATCCAATTTTT [XGTACX_site4402] | 7.75 ± 0.29
TTTTTAAAACATATCACACATATATATATATATATA [CACACA_site5991] | 9.39 ± 0.62
CCGTATTCAAAAAGGAGTACACAATTATATGTTATA [XGTACX_site641] | 8.05 ± 0.28

Sequence | gcPBM binding intensity (ln)
ATATGAGAGAATAAAACACACAAAAAAAAAAAAAAA [CACACA_site2865] | 7.97 ± 0.79
TAATAATCAAGTTAACGTACAAAATCATCTATAGAA [XGTACX_site5921] | 8.03 ± 0.13
GTAGCCTTTCTTTATAAAGGCAAACAAACAAAAAAT [CACACA_negctrl_site1491] | 8.01 ± 0.59
TGTATGTATTTTCAATGTACATAAAAAAAAAAAAAA [XGTACX_site4397] | 8.07 ± 0.51
TATTTTTTTTGTTAGGTGCATTTACATTTATTTTTA | 10.8 ± 0.61
AAAAATTAAAAGAAAATACACACCTGTGGGTGCTTA [CACACA_site1988] | 7.34 ± 0.73
TTATATAGGCAGATGGTGCATCTATTTATAAGCAAC | 9.78 ± 0.12
AAAAAAAAAAGTTCTACACACACAAAAAAATATTTT [CACACA_site8725] | 7.62 ± 0.67
TGCATACTAGCCAATTGTACATAATTTTATTTTAAA [XGTACX_site513] | 7.8 ± 0.31
ATTATGATTTTATAGAACTGAACATTTACATTAAAT [GTGCAC_negctrl_site192] | 7.58 ± 0.45
AAAATAAATCTGAATGGGGTATAATATATCTTTGTT [CACACA_negctrl_site744] | 7.61 ± 0.59
AAAAGGAACAGACACACACACATATATATATATATA [CACACA_site3587] | 9.54 ± 0.57
ATTTATTATATATACACACATACATATATATATATA [CACACA_site2159] | 9.23 ± 0.38
ATAACAAAATAAAACACACACACAAATGTACTTATA [CACACA_site8768] | 7.83 ± 0.31
TGCTTTTATTTCTTCACACATATGTAAAAAAAAGAA [CACACA_site5906] | 8.21 ± 0.23
AAAAAATTCTGGTACTGTACACATTTTTTTAAATTT [XGTACX_site6904] | 7.76 ± 0.38
ATACGAAAAAAAAAAAGTACACAAAAATATCTACAT [XGTACX_site2051] | 7.96 ± 0.19
ATATAAATAATGTTGACACACACAATAATCTTATTA [CACACA_site9197] | 7.66 ± 0.67
AAAATATGGATTCATGATATTAAATTTAATTTAATG [XGTACX_negctrl_site214] | 7.41 ± 0.55
